From paper PMC4336329 (PLoS ONE, 2015)
In all, about 310,000 compounds went through this assay and about 14,000 (4.5%) showed an effect of 50% or more. Effects have a minus sign here. The list shows a part of the results.

target: human ether-à-go-go-related gene (hERG) potassium channel (human, UniProt Q12809); experiment: primary screen, population patch clamp on CHO cells stably expressing hERG
Description: Briefly, Chinese hamster ovary (CHO) cells stably expressing the hERG channel were dislodged from tissue culture flasks and dispensed into PPC plates. […] During the recording, background leak currents were estimated by a 100 ms step to -80 mV from an initial holding potential of -70 mV and subtracted from the subsequent current measurement. The campaign was conducted in two phases using slight differences in recording protocol. In the first phase, the initial voltage pulse used a 100 ms step to -30 mV from a holding potential of -70 mV, a 2 s conditioning step to +25 mV, and a 2 s test step to -30 mV. During the second phase of the screen, the potential during the conditioning step was raised to +45 mV. In both phases of the campaign, a secondary voltage pulse was applied using the same parameters as the second phase initial pulse. The initial and secondary pulses were applied in the absence of compound, and upon application of 1 μM and 10 μM test concentrations. […]
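Further: peak tail current of the secondary pulse compared with the same well before compound.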

Sequence of human ether-à-go-go-related gene (hERG) potassium channel (Q12809 whole entry, looked up): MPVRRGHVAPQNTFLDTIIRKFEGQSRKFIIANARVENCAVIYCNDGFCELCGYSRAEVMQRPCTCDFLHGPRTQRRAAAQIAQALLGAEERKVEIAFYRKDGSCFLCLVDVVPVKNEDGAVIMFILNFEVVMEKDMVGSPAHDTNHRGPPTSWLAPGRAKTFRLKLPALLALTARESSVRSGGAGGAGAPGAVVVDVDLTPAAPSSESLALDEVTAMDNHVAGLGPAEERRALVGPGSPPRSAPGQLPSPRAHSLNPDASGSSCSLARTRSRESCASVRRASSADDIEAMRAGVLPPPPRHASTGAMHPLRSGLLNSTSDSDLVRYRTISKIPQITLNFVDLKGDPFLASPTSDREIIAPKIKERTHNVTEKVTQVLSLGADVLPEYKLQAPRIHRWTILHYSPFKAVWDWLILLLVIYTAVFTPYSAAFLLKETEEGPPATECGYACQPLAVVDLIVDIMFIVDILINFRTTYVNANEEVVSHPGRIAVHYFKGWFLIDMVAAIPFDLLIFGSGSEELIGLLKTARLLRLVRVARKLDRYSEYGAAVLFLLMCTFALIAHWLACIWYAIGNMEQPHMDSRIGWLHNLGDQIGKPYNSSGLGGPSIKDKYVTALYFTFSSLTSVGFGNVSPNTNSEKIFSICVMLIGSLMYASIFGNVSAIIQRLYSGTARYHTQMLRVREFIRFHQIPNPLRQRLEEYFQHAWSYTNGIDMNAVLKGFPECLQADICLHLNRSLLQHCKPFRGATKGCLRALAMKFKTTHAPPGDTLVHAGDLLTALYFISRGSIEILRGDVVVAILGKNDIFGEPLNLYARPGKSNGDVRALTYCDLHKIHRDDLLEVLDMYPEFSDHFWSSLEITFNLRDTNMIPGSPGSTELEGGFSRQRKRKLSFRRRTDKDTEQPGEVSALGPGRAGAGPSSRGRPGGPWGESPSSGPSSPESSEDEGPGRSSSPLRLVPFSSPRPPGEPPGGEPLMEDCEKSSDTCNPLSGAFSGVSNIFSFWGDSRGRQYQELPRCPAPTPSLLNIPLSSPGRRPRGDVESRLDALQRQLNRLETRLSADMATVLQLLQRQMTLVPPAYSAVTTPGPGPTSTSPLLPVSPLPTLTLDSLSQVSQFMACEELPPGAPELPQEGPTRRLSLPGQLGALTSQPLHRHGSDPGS

SMILES | hERG current change (%, negative = inhibition) at 10uM
Fc1c(F)c(F)c(N=Cc2ccc3ncccc3c2)c(F)c1F | 9.06%
COCCN(CCOC)S(=O)(=O)c1ccc(C(=O)Nc2c(C)n(C)n(-c3ccccc3)c2=O)cc1 | -13.7%
CS(=O)(=O)n1nc(-c2ccc(Cl)cc2)nc1SCc1ccccc1 | 4.58%
Cc1c(C)n(CCN(C)C)c2ccc(C(=O)OCCN(C)C)cc12.Cl | 5.13%
O=C(NNc1nc2c(F)cccc2s1)C1COc2ccccc2O1 (stereo not shown) | 11.7%
Cc1cccc(N(CC(=O)NCC2CCCO2)C(=O)CNS(=O)(=O)c2ccc(Cl)cc2)c1 (stereo not shown) | -6.95%
COc1cc(C(=O)Nc2nnc(C3CC3)s2)ccc1OCc1c(C)noc1C | 23.5%
O=C(Nn1cnnc1)c1cc(-c2cccc(Br)c2)nc2ccccc12 | 3.75%
c1ccc(CSc2nnc(Cc3ccccn3)o2)cc1 | 9.85%
COc1ccc(S(=O)(=O)NN=C2CCCC2)cc1 | -5.26%
Cc1csc(Sc2ccc([N+](=O)[O-])cc2C(=O)OCC(=O)NC(=O)NC(C)(C)C)n1 | 8.31%
CC(=O)N1CCOCCOCCN(C(C)=O)CCOCC1 | 28.8%
Cc1cccc(C)c1NC(=O)COC(=O)c1ccc2c(c1)OCO2 | -4.84%
COc1ccc(Cl)cc1N(CC(=O)NC(C(C)C)C(C)C)S(C)(=O)=O | -4.99%
Cc1ccccc1CC1S/C(=N/N=C/c2ccco2)NC1=O (stereo not shown) | 20.1%
c1ccc(-n2ncc3c(NCc4ccc5c(c4)OCO5)ncnc32)cc1 | -4.86%
C=CCN1c2ccccc2[C@]23C[C@@H](C(=O)OC)N(C(=O)NCCC)C2=NC(C(=O)OC)=C(C(=O)OC)[C@H]13 | 16.2%
CCCOc1ccc(C(=O)NC(=S)NNC(=O)c2c(-c3ccccc3)noc2C)cc1 | 8.74%
Cc1csc2nc(O)c(C(=O)NC3CCCCC3C)c(=O)n12 (stereo not shown) | -28.2%
COc1ccc(/C=N/Nc2ncnc3sc(C)c(C)c23)cc1 | -8.19%
O=C(Nc1ccccc1[N+](=O)[O-])C1(c2ccccc2)CCOCC1 | -16.1%
O=C(Nc1cccc(S(=O)(=O)Nc2ccc(Cl)cc2)c1)c1cc2c(s1)CCCC2 | 4.73%
COc1ccc2c(c1)nc(CN1CCN(CCO)CC1)n2C | 23%
CCO.N#CC1=C(N)OC2=C(CC/C2=C\c2ccccc2Cl)C1c1ccccc1Cl (stereo not shown) | 10.4%
O=C(NCc1nnc(SCC(=O)N2CCCc3ccccc32)o1)c1c(F)cccc1Cl | 7.87%
O=C(c1ccc(N2CCCC2)c([N+](=O)[O-])c1)N1CCN(S(=O)(=O)c2ccc(Cl)cc2)CC1 | -36.2%
Cn1cccc1-c1cc(C(=O)N/N=C/c2ccc(Cl)cc2)[nH]n1 | -22.3%
COc1ccc(-n2c(O)c(/C=C3\C=Nc4ccc(Br)cc43)c(=O)[nH]c2=O)cc1 | 15.5%

SMILES | hERG current change (%, negative = inhibition) at 10uM
COc1ccc(-c2c(C)[nH]n3c(=O)c(Cc4ccccc4)c(C)nc23)cc1 | -22.4%
O=C(NCCN1CCCOC1=O)C(=O)NCCN1CCCOC1=O | 4.98%
COc1cc(CC(=O)NCc2ccco2)cc(OC)c1OC | 11.8%
CC1CCCCN1C/C=C/c1ccccc1[N+](=O)[O-] (stereo not shown) | -39%
Cc1ccc(N(Cc2cc3cc(C)ccc3[nH]c2=O)S(=O)(=O)c2ccccc2)cc1 | -1.76%
O=C(CSc1ccccc1)N[C@@H](Cc1ccccc1)C(=O)O | 13.7%
CC(=O)N1CCN(C(=O)COC(=O)CNC(=O)c2ccc(C)cc2)CC1 | 1.27%
COC(=O)/C(=C\Nc1ccc(Cl)cc1Cl)NC(=O)c1ccccc1 | -4.83%
CN(C)S(=O)(=O)c1cccc(C(=O)Nc2ccccc2)c1 | 16.1%
COc1ccc(C=O)cc1C1=CC(=O)C[C@H](c2ccc(Cl)cc2)C1 | -17.8%
CSCCC(NC(=O)c1ccco1)C(=O)N1CCN(c2ccccc2O)CC1 (stereo not shown) | -25.6%
O=C(COc1ccc(S(=O)(=O)N2CCOCC2)cc1)N1CCCCCC1 | 31.2%
Cc1ccc(C(=O)Nc2ccc(N3CCN(C)CC3)cc2)cc1C.Cl | -46.6%
CCOC(=O)C1CCCN(CCC(=O)Nc2ccc(Br)c(C)c2)C1.Cl (stereo not shown) | -36.1%
COc1ccc(C(C(=O)NCc2ccccc2)N(C(=O)c2snc(C(N)=O)c2N)c2ccccc2OC)cc1 (stereo not shown) | 9.69%
CCOC(=O)N1CCN(Cc2nc(N)nc(Nc3ccc(OC)cc3)n2)CC1 | -62.4%
CC(=O)Nc1ccc(NC(=O)Cn2nc(C(=O)Nc3ccc(C)cc3)ccc2=O)cc1 | 27.3%
O=S(=O)(Nc1nccs1)c1cc(Cl)ccc1Cl | 1.38%
CCOC(=O)C1(Cc2ccccc2C(F)(F)F)CCN(C(C)CSC)CC1 (stereo not shown) | -48.2%
Cc1ccc(O)c(NC(=O)C2CC(c3cccc(Br)c3)=NO2)c1 (stereo not shown) | -15%
CCOC(=O)c1cc(CC)sc1NC(=O)COC(=O)C1CCC1 | 8.46%
Cc1ccc(S(=O)(=O)N2CCCN(S(=O)(=O)C3CCS(=O)(=O)C3)CC2)cc1 (stereo not shown) | -31%
CCOC(=O)C(=O)N1CCC(Cc2ccccc2)CC1 | -1.57%
Cc1ccc(SCn2nnc3ccccc3c2=O)c(C)c1 | -33.8%
Nc1nnc(SCC(=O)NCc2ccc3c(c2)OCO3)s1 | 10.1%
CN(C)CCN(C)Cc1ccccc1Sc1cccc2ccccc12.Cl | -65.3%
CC(C)(CNS(=O)(=O)c1ccc(Cl)cc1)N1CCCCC1 | -5.62%
